# Data taken from the supplement of paper PMC8728848.
# This is one part of the list.
# How the values were obtained:
# Assay in all cases: glycan array binding signal (z-score within array); higher = stronger binding
# Details in all cases: glycan notation: IUPAC condensed, linker removed
# [1] = molecular target: Man(a1-2)Man(a1-3)[Man(a1-2)Man(a1-6)]Man
# How it was run: (§1)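 Columns mapping to the same glycan were averaged after glycan names were converted to IUPAC-condensed notation. The data come from 3228 arrays in the Consortium for Functional Glycomics database, limited to those with an available protein sequence. Binding is reported as a within-array Z-score averaged across arrays of one protein sequence and across linkers.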
# [2] = molecular target: Man(a1-2)Man(a1-3)[Man(a1-2)Man(a1-6)]Man(a1-6)[Man(a1-2)Man(a1-2)Man(a1-3)]Man
# How it was run: as §1
# [3] = molecular target: Man(a1-2)Man(a1-3)[Man(a1-2)Man(a1-6)]Man(a1-6)[Man(a1-2)Man(a1-2)Man(a1-3)]Man(b1-4)GlcNAc(b1-4)GlcNAc
# How it was run: as §1
# [4] = molecular target: Man(a1-2)Man(a1-3)[Man(a1-6)]Man(a1-6)[Man(a1-2)Man(a1-3)]Man(b1-4)GlcNAc(b1-4)GlcNAc
# How it was run: as §1
# [5] = molecular target: Man(a1-2)Man(a1-6)[Man(a1-3)]Man(a1-6)[Man(a1-2)Man(a1-2)Man(a1-3)]Man
# How it was run: as §1
# [6] = molecular target: Man(a1-2)Man(a1-6)[Man(a1-3)]Man(a1-6)[Man(a1-2)Man(a1-2)Man(a1-3)]Man(b1-4)GlcNAc(b1-4)GlcNAc
# How it was run: as §1
# [7] = molecular target: Man(a1-3)[Man(a1-6)]Man
# How it was run: as §1
# [8] = molecular target: Man(a1-3)[Man(a1-6)]Man(a1-6)[Man(a1-2)Man(a1-3)]Man(b1-4)GlcNAc(b1-4)GlcNAc
# How it was run: as §1
# [9] = molecular target: Man(a1-3)[Man(a1-6)]Man(a1-6)[Man(a1-3)]Man
# How it was run: as §1
# [10] = molecular target: Man(a1-3)[Man(a1-6)]Man(a1-6)[Man(a1-3)]Man(b1-4)GlcNAc(b1-4)GlcNAc
# How it was run: as §1
# [11] = molecular target: Man(a1-3)[Man(a1-6)]Man(b1-4)GlcNAc(b1-4)GlcNAc
# How it was run: as §1
# [12] = molecular target: Man(a1-3)[Man(a1-6)]Man(b1-4)GlcNAc(b1-4)[Fuc(a1-6)]GlcNAc
# How it was run: as §1
# [13] = molecular target: Man(a1-6)Man
# How it was run: as §1
# [14] = molecular target: Man(b1-4)GlcNAc
# How it was run: as §1
# [15] = molecular target: MurNAc(b1-4)GlcNAc
# How it was run: as §1
# [16] = molecular target: Neu5Ac(a2-3)Gal
# How it was run: as §1
# [17] = molecular target: Neu5Ac(a2-3)Gal(b1-3)GalNAc
# How it was run: as §1
# [18] = molecular target: Neu5Ac(a2-3)Gal(b1-3)GalNAc(b1-3)Gal(a1-4)Gal(b1-4)Glc
# How it was run: as §1
# [19] = molecular target: Neu5Ac(a2-3)Gal(b1-3)GalNAc(b1-4)[Neu5Ac(a2-3)]Gal(b1-4)Glc
# How it was run: as §1
# [20] = molecular target: Neu5Ac(a2-3)Gal(b1-3)GalNAc(b1-4)[Neu5Ac(a2-8)Neu5Ac(a2-3)]Gal(b1-4)Glc
# How it was run: as §1
# [21] = molecular target: Neu5Ac(a2-3)Gal(b1-3)GalNAc6S
# How it was run: as §1
# [22] = molecular target: Neu5Ac(a2-3)Gal(b1-3)GlcNAc
# How it was run: as §1
# [23] = molecular target: Neu5Ac(a2-3)Gal(b1-3)GlcNAc(b1-2)Man
# How it was run: as §1
# [24] = molecular target: Neu5Ac(a2-3)Gal(b1-3)GlcNAc(b1-2)Man(a1-3)[GlcNAc(b1-4)][Neu5Ac(a2-3)Gal(b1-3)GlcNAc(b1-2)Man(a1-6)]Man(b1-4)GlcNAc(b1-4)GlcNAc
# How it was run: as §1
# [25] = molecular target: Neu5Ac(a2-3)Gal(b1-3)GlcNAc(b1-2)Man(a1-3)[Neu5Ac(a2-3)Gal(b1-3)GlcNAc(b1-2)Man(a1-6)]Man(b1-4)GlcNAc(b1-4)GlcNAc
# How it was run: as §1
# [26] = molecular target: Neu5Ac(a2-3)Gal(b1-3)GlcNAc(b1-3)Gal(b1-3)GlcNAc
# How it was run: as §1
# [27] = molecular target: Neu5Ac(a2-3)Gal(b1-3)GlcNAc(b1-3)Gal(b1-4)GlcNAc
# How it was run: as §1
# [28] = molecular target: Neu5Ac(a2-3)Gal(b1-3)GlcNAc(b1-3)GalNAc
# How it was run: as §1
# [29] = molecular target: Neu5Ac(a2-3)Gal(b1-3)GlcNAc(b1-4)Gal(b1-4)Glc
# How it was run: as §1
# [30] = molecular target: Neu5Ac(a2-3)Gal(b1-3)GlcNAc(b1-6)GalNAc
# How it was run: as §1
# [31] = molecular target: Neu5Ac(a2-3)Gal(b1-3)GlcNAc6S
# How it was run: as §1
# [32] = molecular target: Neu5Ac(a2-3)Gal(b1-3)[Fuc(a1-4)]GlcNAc
# How it was run: as §1
# [33] = molecular target: Neu5Ac(a2-3)Gal(b1-3)[Fuc(a1-4)]GlcNAc(b1-3)Gal(b1-3)[Fuc(a1-4)]GlcNAc
# How it was run: as §1
# [34] = molecular target: Neu5Ac(a2-3)Gal(b1-3)[Fuc(a1-4)]GlcNAc(b1-3)Gal(b1-4)[Fuc(a1-3)]GlcNAc
# How it was run: as §1
# [35] = molecular target: Neu5Ac(a2-3)Gal(b1-3)[GlcNAc(b1-6)]GalNAc
# How it was run: as §1
# [36] = molecular target: Neu5Ac(a2-3)Gal(b1-3)[Neu5Ac(a2-6)]GalNAc
# How it was run: as §1
# [37] = molecular target: Neu5Ac(a2-3)Gal(b1-3)[Neu5Ac(a2-6)]GlcNAc(b1-3)[Fuc(a1-3)[Gal(b1-4)]GlcNAc(b1-6)]Gal(b1-4)Glc
# How it was run: as §1
# [38] = molecular target: Neu5Ac(a2-3)Gal(b1-3)]Neu5Ac(a2-3)Gal(b1-4)]GlcNAc
# How it was run: as §1
# [39] = molecular target: Neu5Ac(a2-3)Gal(b1-4)Glc
# How it was run: as §1
# [40] = molecular target: Neu5Ac(a2-3)Gal(b1-4)GlcNAc
# How it was run: as §1
# [41] = molecular target: Neu5Ac(a2-3)Gal(b1-4)GlcNAc(b1-2)Man
# How it was run: as §1
# [42] = molecular target: Neu5Ac(a2-3)Gal(b1-4)GlcNAc(b1-2)Man(a1-3)[GlcNAc(b1-4)][Neu5Ac(a2-3)Gal(b1-4)GlcNAc(b1-2)Man(a1-6)]Man(b1-4)GlcNAc(b1-4)GlcNAc
# How it was run: as §1
# [43] = molecular target: Neu5Ac(a2-3)Gal(b1-4)GlcNAc(b1-2)Man(a1-3)[Neu5Ac(a2-3)Gal(b1-4)GlcNAc(b1-2)Man(a1-6)]Man(b1-4)GlcNAc(b1-4)GlcNAc
# How it was run: as §1
# [44] = molecular target: Neu5Ac(a2-3)Gal(b1-4)GlcNAc(b1-2)Man(a1-3)[Neu5Ac(a2-3)Gal(b1-4)GlcNAc(b1-2)Man(a1-6)]Man(b1-4)GlcNAc(b1-4)[Fuc(a1-6)]GlcNAc
# How it was run: as §1
# [45] = molecular target: Neu5Ac(a2-3)Gal(b1-4)GlcNAc(b1-2)Man(a1-3)[Neu5Ac(a2-6)Gal(b1-4)GlcNAc(b1-2)Man(a1-6)]Man(b1-4)GlcNAc(b1-4)GlcNAc
# How it was run: as §1
binder,measurement,setting,value
"EPL1 (Trichoderma atroviride), A0PCX2 (protein) MQLSNLFKLALFTAAVSADTVSYDTGYDDASRSLTVVSCSDGTNGLITRYHWQTQGQIPRFPYIGGAQAVAGWNSPNCGTCWKLTYSGKTIYVLAIDHTAAGFNIGLDAMNALTNGNAVALGRVSATASQVAVSNCGL",glycan array binding signal (z-score),[1],0.151
same,glycan array binding signal (z-score),[2],-0.315
same,glycan array binding signal (z-score),[3],-0.345
same,glycan array binding signal (z-score),[4],-0.48
same,glycan array binding signal (z-score),[5],-0.213
same,glycan array binding signal (z-score),[6],-0.097
same,glycan array binding signal (z-score),[7],-0.477
same,glycan array binding signal (z-score),[8],-0.286
same,glycan array binding signal (z-score),[9],-0.677
same,glycan array binding signal (z-score),[10],0.034
same,glycan array binding signal (z-score),[11],-0.275
same,glycan array binding signal (z-score),[12],0.224
same,glycan array binding signal (z-score),[13],0.009
same,glycan array binding signal (z-score),[14],0.021
same,glycan array binding signal (z-score),[15],-0.51
same,glycan array binding signal (z-score),[16],-0.124
same,glycan array binding signal (z-score),[17],-0.296
same,glycan array binding signal (z-score),[18],-0.084
same,glycan array binding signal (z-score),[19],0.173
same,glycan array binding signal (z-score),[20],0.49
same,glycan array binding signal (z-score),[21],0.354
same,glycan array binding signal (z-score),[22],0.189
same,glycan array binding signal (z-score),[23],-0.068
same,glycan array binding signal (z-score),[24],-0.065
same,glycan array binding signal (z-score),[25],0.58
same,glycan array binding signal (z-score),[26],-0.271
same,glycan array binding signal (z-score),[27],0.055
same,glycan array binding signal (z-score),[28],-0.457
same,glycan array binding signal (z-score),[29],-0.475
same,glycan array binding signal (z-score),[30],0.388
same,glycan array binding signal (z-score),[31],-0.116
same,glycan array binding signal (z-score),[32],-0.091
same,glycan array binding signal (z-score),[33],-0.35
same,glycan array binding signal (z-score),[34],-0.501
same,glycan array binding signal (z-score),[35],-0.167
same,glycan array binding signal (z-score),[36],0.447
same,glycan array binding signal (z-score),[37],-0.501
same,glycan array binding signal (z-score),[38],-0.367
same,glycan array binding signal (z-score),[39],-0.061
same,glycan array binding signal (z-score),[40],-0.399
same,glycan array binding signal (z-score),[41],0.402
same,glycan array binding signal (z-score),[42],-0.469
same,glycan array binding signal (z-score),[43],-0.374
same,glycan array binding signal (z-score),[44],0.589
same,glycan array binding signal (z-score),[45],-0.297
